Reference: article PMC4336329 (PLoS ONE, 2015)
Screen size: about 310,000 compounds; about 14,000 (4.5%) showed an effect of 50% or more. Effects have a minus sign here. Some of the results follow.

Biological target: human ether-à-go-go-related gene (hERG) potassium channel (human, UniProt Q12809)
Assay: primary screen, population patch clamp on CHO cells stably expressing hERG
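Note: peak tail current of the secondary pulse compared with the same well before compound.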

Sequence of human ether-à-go-go-related gene (hERG) potassium channel (Q12809 whole entry, looked up): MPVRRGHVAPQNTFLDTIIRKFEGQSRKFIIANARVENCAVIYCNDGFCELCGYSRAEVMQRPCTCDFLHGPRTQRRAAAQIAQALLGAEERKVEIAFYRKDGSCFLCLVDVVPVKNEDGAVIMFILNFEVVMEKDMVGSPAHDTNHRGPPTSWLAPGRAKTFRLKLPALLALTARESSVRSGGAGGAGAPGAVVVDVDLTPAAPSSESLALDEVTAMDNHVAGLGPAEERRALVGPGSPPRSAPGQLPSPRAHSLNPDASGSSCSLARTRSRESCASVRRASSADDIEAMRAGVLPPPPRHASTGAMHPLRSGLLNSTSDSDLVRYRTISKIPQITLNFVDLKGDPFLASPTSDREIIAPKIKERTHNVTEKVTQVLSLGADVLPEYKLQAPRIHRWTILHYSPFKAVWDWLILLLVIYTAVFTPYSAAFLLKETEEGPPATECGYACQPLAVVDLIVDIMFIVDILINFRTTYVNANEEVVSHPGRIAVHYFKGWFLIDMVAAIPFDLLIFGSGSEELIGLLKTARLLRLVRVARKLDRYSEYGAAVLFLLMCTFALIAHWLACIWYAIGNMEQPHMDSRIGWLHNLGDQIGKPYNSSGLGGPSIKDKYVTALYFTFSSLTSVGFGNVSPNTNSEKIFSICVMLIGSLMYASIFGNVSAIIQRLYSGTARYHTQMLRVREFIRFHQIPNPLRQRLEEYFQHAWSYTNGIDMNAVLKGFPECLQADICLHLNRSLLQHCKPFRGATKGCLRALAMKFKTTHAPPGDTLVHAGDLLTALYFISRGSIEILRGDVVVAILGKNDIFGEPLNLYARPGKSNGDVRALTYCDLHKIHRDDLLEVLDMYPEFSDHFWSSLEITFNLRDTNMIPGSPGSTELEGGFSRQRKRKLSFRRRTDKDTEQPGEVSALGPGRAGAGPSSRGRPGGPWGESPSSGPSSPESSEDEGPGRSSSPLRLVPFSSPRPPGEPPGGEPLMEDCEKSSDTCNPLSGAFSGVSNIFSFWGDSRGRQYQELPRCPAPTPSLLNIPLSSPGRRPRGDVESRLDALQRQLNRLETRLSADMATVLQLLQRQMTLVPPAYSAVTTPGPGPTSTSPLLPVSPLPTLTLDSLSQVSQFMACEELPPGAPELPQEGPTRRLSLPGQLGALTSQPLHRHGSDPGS

Row | SMILES | hERG current change (%, negative = inhibition) at 10uM
1 | Cc1cc(C)nc(SCc2nnc(SCC(=O)N3CCOCC3)o2)n1 | 7.85%
2 | CN(CCOC(=O)/C=C/c1ccco1)Cc1ccccc1 | -4.75%
3 | CCOC(=O)CN1CC23C=CC(O2)C(C(=O)NCCc2ccccc2)C3C1=O (stereo not drawn) | 6.73%
4 | CC1CCCCN1Cc1ccc(-c2nn[nH]n2)cc1 (stereo not drawn) | 22.2%
5 | O=C(CSc1nc2scc(-c3ccccc3)c2c(=O)[nH]1)N1CCCCC1 | 14.4%
6 | CCN(C(=O)CSc1nnnn1-c1ccccc1)c1c(N)n(Cc2ccccc2)c(=O)[nH]c1=O | -6.24%
7 | C=CCOC(=O)C1=C[C@H](c2cn(C(C)=O)c3ccccc23)C[C@H](OCc2ccc(CO)cc2)O1 | -9.82%
8 | O=C1CC(c2ccc(O)cc2)Oc2ccccc21 (stereo not drawn) | -2.97%
9 | COc1ccc(-c2oc3ccc(-c4cc(OC)c(OC)c(OC)c4)cc3c2-c2ccc(OC)cc2)cc1 | 13.6%
10 | CC(=O)N1c2ccc(S(=O)(=O)N3CCCC(C(=O)N4CCC(C)CC4)C3)cc2CC1C (stereo not drawn) | -12%
11 | O=C(CCN1CCOCC1)N1CCCC(Nc2ccc(F)cc2)C1 (stereo not drawn) | 13.7%
12 | CCC(=O)N(CCc1ccc(S(N)(=O)=O)cc1)C1CC(=O)N(c2ccc(OC)cc2)C1=O (stereo not drawn) | 1.99%
13 | C=CCC1(C#N)C(=S)NC2=C(C(=O)CC(C)(C)C2)C1c1ccc(Br)cc1 (stereo not drawn) | 1.43%
14 | CC(C)N1CC(C(=O)Nc2nc3ccccc3s2)CC1=O (stereo not drawn) | -3.99%
15 | CNc1nnc(-c2ccco2)s1 | 6.04%
16 | CCc1ccc(OCC(=O)Nc2ccc(S(=O)(=O)Nc3cc(C)on3)cc2)c(Br)c1 | -19.7%
17 | CCCSc1nc(N)nc(-c2cccs2)c1C#N | -11.6%
18 | Clc1ccc(-n2c(SC/C=C/c3ccccc3)nnc2-c2cccnc2)cc1 | -50.3%
19 | CCCCCc1ccc(-c2cn(Cc3ccc(C(=O)c4ccccc4)cc3)nn2)cc1 | 16.2%
20 | O=C(NC1CCCCC1)NC1(C(=O)NCCCN2CCOCC2)CCCCC1 | 14%
21 | CN(C)/C=N/c1nc(-c2ccc3ccccc3c2)cs1 | -17.6%
22 | CN(CC(=O)Nc1cccc(S(=O)(=O)N(C)C)c1)Cc1ccccc1 | 1.62%

Row | SMILES | hERG current change (%, negative = inhibition) at 10uM
23 | CCCN(CCC)C(=O)C1CCC(CNS(=O)(=O)c2cccc3nsnc23)CC1 (stereo not drawn) | -69.5%
24 | COc1ccc(OC[C@@H](O)CNC(=O)c2cccc3c2C(=O)c2ccc(Cl)cc2S3(=O)=O)cc1 | -6.85%
25 | COc1ccccc1-c1cc(C(=O)N/N=C/c2cccs2)c2ccccc2n1 | 11.5%
26 | O=C(CN1CCN(Cc2ccccc2)CC1)Nc1cccc(Cl)c1 | -60.7%
27 | Cc1ccc(S(=O)(=O)N2[C@@H](c3ccc(F)cc3)C(C(=O)O)=CC[C@H]2c2ccc(Cl)cc2)cc1 | 11.4%
28 | O=C(CN1C2CCCC1CC(NC(=O)C1CCCCC1)C2)Nc1ccccc1C(F)(F)F (stereo not drawn) | -1.78%
29 | Cc1ccc(NC(=O)CSCCc2ccccn2)nc1 | 2.78%
30 | Cc1nn(C)c(C)c1NC(=O)c1ccnn1C | -7.7%
31 | O=C1NC(=O)N(c2ccccc2)C(=O)/C1=C\C=C\c1ccccc1 | 0.219%
32 | CCOC(=O)c1nnc2ccnn2c1N | 23.7%
33 | Cc1ccc(COc2ccc(-c3nnco3)cc2)cc1 | 16%
34 | O=C(c1ccc2snnc2c1)N1CCN(c2ccccc2)CC1 | -40.7%
35 | CC(C)CCN1CCC(n2nccc2NC(=O)C2CCOC2)CC1 (stereo not drawn) | 15.3%
36 | Cc1ccc(C2C(S(C)(=O)=O)=C(O)C(=O)N2c2ccccc2)cc1.Nc1ccccc1 (stereo not drawn) | 6.31%
37 | COc1ccc(CCN2CCCn3c2nc2c3c(=O)n(Cc3ccccc3F)c(=O)n2C)cc1OC | -42.4%
38 | Cc1cc(NC(=O)CCC(=O)N(CC(=O)NCC2CCCO2)c2ccccc2C)no1 (stereo not drawn) | 2.97%
39 | COc1ccc(CN2CCC(C(=O)NCCc3ccc(OC)c(OC)c3)CC2)c(OC)c1 | -29.9%
40 | COc1ccccc1NC(=O)c1sc2nc3n(c(=O)c2c1C)CCC3 | 14%
41 | COc1ccc(-c2noc(CCC(=O)NCCN(C)Cc3ccccc3)n2)cc1 | -30.5%
42 | COc1ccccc1CNC(=O)C1CCCN(S(=O)(=O)c2cccc3cccnc23)C1 (stereo not drawn) | -7.36%
43 | COc1ccccc1OCC(=O)NCCSCc1cccc(Cl)c1 | -21.4%
44 | Cc1ccc(S(=O)(=O)c2nc(-c3ccccc3F)oc2N2CC(C)OC(C)C2)cc1 (stereo not drawn) | -7.94%

Row | SMILES | hERG current change (%, negative = inhibition) at 10uM
45 | Cc1cc(C(=O)OCC(=O)Nc2ccc(F)cc2)c(C)n1C1CC1 | 5.51%
46 | Cc1ccc2c(CC(=O)N3CCN(c4ccccc4)CC3)coc2c1 | -22%
47 | Cc1nn(C2CCS(=O)(=O)C2)c(Cl)c1/C=C/C(=O)OCC(N)=O (stereo not drawn) | 7.97%
48 | Cc1nn(-c2ccccc2)c(C)c1/C=N/NC(=O)c1cc(-c2cccc3ccccc23)n[nH]1 | -7.94%
49 | O=C(CSc1nc2c([nH]c3ccccc32)c(=O)n1-c1ccccc1F)NCC1CCCO1 (stereo not drawn) | -30.5%
50 | O=C(/C=C/c1ccccc1)NCCSCc1ccc(Cl)cc1 | 5.19%
51 | CC1=C(C(=O)N2CCCCC2)C2(CCC(C)CC2)OC1=O (stereo not drawn) | -6.74%
52 | O=C1/C(=C/c2cccs2)SC(=S)N1CCCC(=O)N(CCO)c1ccccc1 | 19.4%
53 | Cc1ccc(C(=O)N/C(=C\c2ccc(Br)cc2)c2nc(=S)[nH][nH]2)cc1 | 0.564%
54 | Cc1cnc(NC(=O)CCc2ccccc2)s1 | 12.2%
55 | CCCCCCCC1(C)NC(=O)NC1=O (stereo not drawn) | 8.35%
56 | O=C(NCc1cccc(F)c1)C1CCC(=O)N(C2CC2)C1 (stereo not drawn) | 9.83%
57 | CCOc1cc(-c2noc(CCC(=O)NC3CCCCC3)n2)ccc1OC | -26.7%
58 | CC(=O)C1=C(C)N(CC2CC2)C(=O)N[C@H]1c1ccc(Br)cc1 | -5.15%
59 | COc1ccc(CNC(=O)c2ccc(CS(=O)(=O)Cc3ccccc3F)o2)cc1 | -9.38%
60 | COCCn1c(Cc2ccccc2)nnc1SCC(=O)N1CCCCC1C (stereo not drawn) | 7.49%
61 | FC(F)(F)c1ccccc1CNCc1ccc2c(c1)OCO2 | 0.962%
62 | O=[N+]([O-])c1ccccc1N/N=C\c1ccccc1F | 14.3%
63 | CCOP(=O)(OCC)C(Nc1ccccc1)c1ccccc1C(F)(F)F (stereo not drawn) | 13.7%
64 | Cc1ccc(N(CC(=O)Nc2ccc(F)c(Cl)c2)S(=O)(=O)c2c(C)noc2C)cc1 | 14%
65 | COc1cc2[nH]c(=O)c(C(=O)NCCCN3CCOCC3)c(O)c2cc1OC.Cl | 9.48%
66 | CCOc1ccc(-c2noc(-c3ccncc3)n2)cc1OCC | 4.63%

Row | SMILES | hERG current change (%, negative = inhibition) at 10uM
67 | c1ccc(C(c2nnnn2Cc2ccco2)N2CCN(c3nc4ccccc4s3)CC2)cc1 (stereo not drawn) | -8.11%
68 | COc1ccc(C(=O)NCC(=O)NCC(=O)OCc2ccc(Cl)cc2)cc1 | -6.07%
69 | O=C(Nc1cccc(Cl)c1Cl)C1CCCC1 | 4.16%
70 | Cc1csc2nc(O)c(C(=O)NCCN3CCOCC3)c(=O)n12 | 0.865%
71 | COC(=O)COc1cccc(/C=N/NC(=O)CCSc2ccccc2)c1 | -15.7%
72 | Cc1cccn2c(=O)c3cc(C(=O)NC4CCCCC4C)n(C)c3nc12 (stereo not drawn) | 13.7%
73 | Cc1cccc(N2CCN(C(=O)c3ccc(NS(=O)(=O)c4ccc5[nH]c(=O)[nH]c5c4)cc3)CC2)c1C | 22.4%
74 | CC(NS(=O)(=O)c1ccccc1)C(=O)Nc1nccs1 (stereo not drawn) | 11.6%
75 | Cc1cccc(C(=O)N/N=C/c2ccc(OCC(=O)N3CCCCC3)cc2)c1 | 5.58%
76 | CCOc1ccc(NC(=O)CN(C)C(=O)/C=C/c2ccc(S(=O)(=O)N3CCCCCC3)cc2)cc1OCC | 16.4%
77 | O=C1CCCN1CCC(=O)N1CCCC(N2CCN(c3ccccc3F)CC2)C1 (stereo not drawn) | 3.51%
78 | COc1ccccc1CNC(=O)CN1C(=O)NC(C)(c2ccc(C)cc2)C1=O (stereo not drawn) | 5.21%
79 | CCOC(=O)COc1ccc(/C=C2\C(=O)NC(=S)N(c3ccc(OC)cc3)C2=O)cc1OC | 19.7%
80 | CC(=O)c1c(-c2ccccc2)c2cc([N+](=O)[O-])ccc2[nH]c1=O | 13.1%
81 | CCCCOC1(c2ccccc2)OC(=O)c2ccccc21 (stereo not drawn) | -14.7%
82 | Cl.c1ccc(C(c2nnnn2Cc2ccco2)N2CCN(C3CCCC3)CC2)cc1 (stereo not drawn) | -53.5%
83 | CN1C(=O)C(=O)N(CC(=O)Nc2ccccc2OC(F)F)C1=O | 18%
84 | Cc1csc2ncc(C(=O)NCc3ccccn3)c(=O)n12 | 2.78%
85 | COC(=O)c1c(NC(=O)CSc2nncs2)sc2c1CCCCC2 | -4.29%
86 | CCn1c(SCC(=O)Nc2ccc(Br)cc2)nc2sc3c(c2c1=O)CCN(C)C3 | 15.9%
87 | CCOc1ccc(S(=O)(=O)Nc2cccc(C(=O)NCC(C)(C)N3CCOCC3)c2)cc1 | -34.5%
